{
  "source": "PubChem BioAssay AID248",
  "about": "(DTP/NCI, 2004)",
  "tested_on": "L1210 leukemia ip in BDF1 mice, survival T/C",
  "assay": "NCI In Vivo Anticancer Drug Screen. Data for tumor model L1210 Leukemia (intraperitoneal) in B6D2F1 (BDF1) mice",
  "conditions": "endpoint: mean survival time, higher = longer survival",
  "note": "Toxic doses and inconclusive results are not listed. Certain results were filed several times, with different values. The list is limited to them. The source may hold further records. Results that share an entry differ, and nothing given here explains why; they may come from other doses, times, organisms or constructs than stated.",
  "data": [
    {"smiles": "COCCOC1=C(N2CC2)C(=O)C(OCCOC)=C(N2CC2)C1=O", "values": [
      {"measurement": "T/C", "setting": "dose: 12.5 mg/kg/injection, schedule: Q01DX001 (ip), vehicle: saline", "result": "122 % of control and 151 % of control"}
    ]},
    {"smiles": "COC(=O)c1cn2c(c1C(=O)OC)CCC2", "values": [
      {"measurement": "T/C", "setting": "dose: 200.0 mg/kg/injection, schedule: Q01DX009 (ip), vehicle: other", "result": "93 % of control, 108 % of control, 459 % of control"}
    ]}
  ]
}
